Among all 48,000 compounds or so, about 120 (0.25%) were called active. Another 4% or so got no clear call; they are omitted. Calls follow the shape of the dose curve; as a rule, active = well fitted activation curve with a large enough effect; inconclusive = small, poorly fitted or top-dose-only effect, or another doubt; inactive = no such curve, though single readings can be large or run the other way. The list shows a part of the results.
assay: Primary qHTS for Identification of Small Molecule Activators of Huntingtin-Antisense Promoter Activity; conditions: HEK293 HTT-AS promoter firefly luciferase reporter (activity 0% = vehicle and -100% = no light), 24 h; series mostly up to 57.5 µM; activity change, positive = activation: at the top concentration; also: nearly all actives have a fitted effect of over 55% in size
How it was run: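 Quantitative HTS used concentration series of up to 57.5 uM final on HEK293 luciferase reporter cells, 24 h at 37 degrees C. Readout was Dual-Glo firefly luminescence.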

Activity change, positive = activation, inactive:
CCN1C(=O)c2ccccc2S(=O)c2ccc(C(=O)N3CCN(c4ccccc4)CC3)cc21 (stereo unspecified) -27.2%
COc1cccc(CNC(=O)CCCN2C(=O)CSc3c2c(C)nn3-c2ccccc2)c1OC -19.7%
CCOC(=O)c1c(NC(=O)/C=C/c2ccc(OCC)c(OC)c2)sc2c1CCC2 -5.81%
COc1ccc(OC)c(CNC(=O)c2cc3ccc4cccnc4c3[nH]2)c1 -2.65%
COc1ccc(-c2ccc3c(N4CCOCC4)nc(N4C[C@@H](C)O[C@@H](C)C4)nc3n2)cc1CO -23%
Cc1nn2c(=O)cc(COC(=O)c3ccc(NC(=O)COc4ccc(Cl)cc4)cc3)nc2s1 -30.6%
CC1CCN(S(=O)(=O)c2ccc3nc(NCc4ccc(F)cc4)ccc3c2)CC1 -36%
CCOc1ccc(CCNc2ncnc3onc(-c4ccc(Cl)cc4)c23)cc1 -67.6%
O=C(Cn1nnc2sc(-c3ccccc3)cc2c1=O)Nc1cccc(C(F)(F)F)c1 -5.1%
CC(C)(C)OC(=O)N1CCC(c2nnc(SCc3ccccc3F)o2)CC1 -28%
COc1ccc(C)cc1NC(=O)C(=O)NCCc1csc2nc(-c3ccccc3F)nn12 -1.16%
CCNC(=O)Nc1ccc(Oc2ncnc(N)c2C=NOC)cc1Cl -1.54%
COc1ccc(NC(=O)c2ccc(NC(=O)CCS(=O)(=O)c3cccs3)cc2)cc1OC -6.21%
CCOC(=O)c1cc(-c2ccccc2)n(CCC(=O)Nc2cc(OCC)ccc2OCC)c1C -21.9%
CCCCCn1c(CCCNC(=O)c2cccc(C)c2)nc2ccccc21 -30%
Cc1cccc(NC(=O)CN2C(=O)c3ccccc3Sc3ncccc32)c1C -16.6%
COc1ccccc1C(=O)OCc1cc(=O)n2nc(C3CCCCC3)sc2n1 8.71%
CCn1c(NCc2ccc(OC)c(OC)c2)nc2ccccc21 -37%
COc1ccc(CCNC(=O)CSC2=Nc3ccccc3C3=NC(CCC(=O)NCc4ccccc4)C(=O)N23)cc1OC (stereo unspecified) 4.13%
Cc1noc2ncnc(N3CCCC(C(=O)NC(C)C)C3)c12 (stereo unspecified) -16.3%
Cc1ccc(Cl)cc1N1CCN(CCCNc2ncnc3onc(-c4ccc(Cl)cc4)c23)CC1 -11.3%
Cc1cccc(CCNC(=O)C2CCN(c3ncnc4c3nc3n4CCCCC3)CC2)c1 4.28%
COc1ccc(-c2nc3scc(CCNS(=O)(=O)c4ccc(F)c(C(F)(F)F)c4)n3n2)cc1OC -46.6%
CCCC(=O)C1=C(c2ccc(C)cc2)N(C(=O)CCC)n2cnnc2S1 24.5%
CCN1CCN(c2cc(C)c3cc(NC(=O)c4cccc(Cl)c4)ccc3n2)CC1 28.5%
Cc1ccc(NC(=O)c2cnc(N3CCCCC3)c3ccccc23)cc1Cl -17.7%
COC(=O)c1scc(-c2ccc(C)cc2)c1S(=O)(=O)Nc1cccc(Cl)c1C -33.1%
Cc1n[nH]c(C)c1CCc1nc2c3ccccc3nc(SCC(=O)Nc3ccc(F)cc3)n2n1 -45.3%
Cc1ccc(OCCn2cc(C(=O)c3ccco3)c3ccccc32)cc1C -31.1%
O=C(CCCCn1c(=O)c2ccccc2n(CC(=O)Nc2ccccc2)c1=O)NCc1ccccc1Cl -10%
Cc1cccc(N2CCN(S(=O)(=O)c3ccc4oc(=O)c5ncn(C)c5c4c3)CC2)c1C -10.1%
CCc1nnc2c3ccccc3nc(Nc3ccccc3OC)n12 -14.9%
Cc1c(C)n(Cc2ccccc2)c2ccc(C(=O)NCc3ccc(OC(C)C)cc3)cc12 -22.5%
CCN(CC)CCCNC(=O)C1CCN(S(C)(=O)=O)CC1 3.95%
CCOC(=O)c1sc(NC(=O)C(C)Sc2nc(-c3ccccc3)cc(C(F)(F)F)n2)c(C(=O)OC)c1C (stereo unspecified) 2.53%
CCOc1ccc(C(=O)Nc2ccc(-c3nc4cc(C)ccc4o3)cc2)cc1 27.5%
Cc1oc(-c2ccc(C(=O)Nc3cccc(C(F)(F)F)c3)cc2)nc1CSc1ccccc1 -88.7%
COc1ccc(Nc2nc3ccc(Cl)cc3n3nnnc23)cc1OC 13.7%
O=C(CN(c1cc(C(F)(F)F)ccc1Cl)S(=O)(=O)c1ccccc1)NCCc1ccccc1 -25.9%
COc1ccc(-c2c(C#N)c(SCC(=O)Nc3ccc(Br)cc3)nc(C)c2C(=O)Nc2ccccc2)cc1 -6.36%
CCOc1ccc(CCNC(=O)c2ccc3c(c2)N(Cc2ccccc2)C(=O)c2ccccc2S3=O)cc1OCC (stereo unspecified) -29.4%
COC(=O)c1ccccc1NC(=O)c1cc2c(s1)-c1ccccc1OC2 -13.7%
O=C(CSc1nc(-c2ccccc2)c2ccccc2n1)Nc1ccc(F)cc1 -4.96%
OC(CN1CCN(c2cccc(Cl)c2)CC1)C(c1ccccc1)c1ccccc1 (stereo unspecified) -58.4%
Cc1cc(C)c(S(=O)(=O)NCCc2cc3ccc(C)cc3[nH]c2=O)c(C)c1 -15.7%
CC1=C(C(=O)N2CCCCC2)C(c2cccc(Cl)c2)n2c(nc3ccccc32)N1 (stereo unspecified) -15.1%
Cc1ccc(CNC(=O)Cn2cc(S(=O)(=O)Cc3cccc(Cl)c3)c3ccccc32)cc1 -22.9%
COc1ccc(-c2nc3nc(C)cc(Nc4cccc(C(F)(F)F)c4)n3n2)cc1 -3.29%
COc1ccc(NC(=O)COc2ccc(S(=O)(=O)NC3CCCCC3)cc2)c(OC)c1 -18.3%
O=C(CCCc1nc(-c2ccccc2)no1)Nc1cc(C(F)(F)F)cc(C(F)(F)F)c1 -29.8%
Cc1cc(C)c(Cn2c3ccccc3c3cnn(CC(=O)NCc4ccc(Cl)cc4)c(=O)c32)c(C)c1 -13.6%
CCOc1ccc(NC(=O)c2cc(S(=O)(=O)N3CCCC3)c[nH]2)cc1 -21.6%
CC1=C(C(=O)Nc2ccccc2C)C(c2ccco2)n2ncnc2N1 (stereo unspecified) -7.79%
Cc1sc(-n2cccc2)c(C(C)NC(=O)Nc2ccccc2Cl)c1C (stereo unspecified) -26%
Cc1noc(Cn2c(=O)c3ccccc3n(CC(=O)Nc3ccc(F)cc3F)c2=O)n1 -10.3%
COc1ccc(CCNC(=O)c2cc(=O)[nH]c3ccc(S(=O)(=O)N4CCCCC4C)cc23)cc1OC (stereo unspecified) -40%
COc1cc(NC(C)CCCN)c2ncccc2c1 (stereo unspecified) -2.55%
CCOCCCNC(=O)c1c(NC(=O)c2nc(SC)ncc2Cl)sc2c1CCCC2 -6.92%
Cc1cn2c(=O)cc(COC(=O)c3ccc(NC(=O)C(C)Oc4ccccc4)cc3)nc2s1 (stereo unspecified) -9.96%
COc1ccc(OC)c(NC(=O)CCNC(=O)Cn2cnc3ccccc3c2=O)c1 1.24%
O=C(Nc1cc(Cl)cc(Cl)c1)c1cc(S(=O)(=O)N2CCC3(CC2)OCCO3)ccc1F -35.7%

From PubChem BioAssay AID1508624 (National Center for Advancing Translational Sciences (NCATS), 2021)
